Reference: the RNAGym collection of RNA variant scans (doi:10.1073/pnas.2313332121)
This sample is rich in variants without activity.

B1: TPR 5TU (parent)
chain: GGAUCUUCUCGAUCUAACAAAAAAGACAAAUCUGCCACAAAGCUUGAGAGCAUCUUCGGAUGCAGAGGCGGCAGCCUUCGGUGGCGCGAUAGCGCCAACGUUCUCAACUAUGACACGCAAAACGCGUGCUCCGUUGAAUGGAGUUUAUCAUG

Variants of: B1
Assay: polymerase ribozyme fitness, log enrichment relative to wild type (log ratio); higher = more active; in vitro selection for triplet polymerase activity
In short: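 Fitness is a logarithmic measure of how a genotype enriched relative to the wild type, with replicate averages weighted by inverse variance. The logarithm uses base 2, and enrichment came from Illumina sequencing of input and output libraries. Those libraries were PCR-built, transcribed mutants of each subunit of a heterodimeric triplet polymerase ribozyme, passed through one triplicate in vitro selection round that included frozen incubation at −7 °C, gel excision of extended constructs and streptavidin-bead capture. Genotypes were kept only if they had ≥10 input reads and ≥1 read per output.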

Polymerase ribozyme fitness (log ratio), -3.26:
A60G G74A

Polymerase ribozyme fitness (log ratio), -2.56:
A60G A110G G136A

Polymerase ribozyme fitness (log ratio), -3.18:
G59U A97C C99G

Polymerase ribozyme fitness (log ratio), ≤ -4.2:
A60U U130A G133A
U61G C87G A115U G136A
U61A C79U A91C U139A
A60C C79G C85U U90G G94U C149U
A60C A98G C131A
G59C G86A G112U
G62A A73C C75G C87U C103G C132G U145G U146A
U61G A66U G80C C85A G92A U146C
U61A C79A G83C
A60U C75U C76G C108U U144C
A60C C76G A120U
U61G U104C A107G A119C A142U
G59U C87A
U61A C76A G94C A110C
A60G G67U C93G U102C
A60C U82A U104A C108G
U61G C99G A138G
U61A C63U G133U
A60U G70A C85U G86A
A60C G74A G136A
A60G G71A G92A G143U
A60G C87A U109A C132G
A60U U78G G86A C95U G143C
A60U G80A C85A C93A
A60C C76U A89G C114U G141U
G62A A66G G86U A121G U127C
U61A G74U G81U C85G
G59U C85G C87G G141C U151A
U61A A66C G74A U90G A91G G133U A138C
A60G G88A C108A
U61A C76U U102G U109C
G59C U61A A64C
U61A G74A C76U C87A C108U A142U
G59U U78G C93G C96U G143U U146C U151G
U61C C87A
U61A G65C C85A C96G U151C
A60U U102C C131A G143A
U61G G71U C87U G143A
A60U C79U G84U
G62C A107G C118U
U61A C76A A91U U102C
G59U G65C C79A
A60G A97C A98G U102A G133U
G59U U77G C79G C95G U135C G143C
U61A C75U G83A C96A A110G A120U U146A
U61A C76A C79G A91C
G59C U77A C85G A107U
U61A A91C G100C A142U
G59C U78C C85A U144A A150U
A60G C75U C79G A142U
U61A C95A A97G A106G U109G U151C
U61A G62C G67C C69A U82A C103A A142G
G59C U77G C87U A89U C149U
A60U C63G A64C U90C C95G C103A A122G
U61A G70C G80C C108U C118G
A60U C85G G92C C116U A138G A142C
G59U A64G A89G A107C
A60G G88C A106U U134A G140C G143C
G59U C75G G88A U144A
U61G C93G A98U A138C
A60C A73G G84A C123A G128U
A60C A64U C93U C132A A142G
A60C C99G U101G
U61G C85A G136C U144C
A60U C85A C93G A150C
A60G G92U C118G U127G U151G
A60C U61A G62C G68C C96G C108G A113U
U61A A73G G80U
U61A C63U C85G A119U C131A
U61A G88U G94C G141U U148A
U61A C108A C118A
A60C A91U
A60U C87G
G59U U130C G141C A150G
A60C C76U G80C G117U C123A
U61G C63A G71U G80A G94U C105G C116G U139A
U61G C87U C125G
U61A A107C C114U G140U
G62A G71A G124C
U61G U78G C132G
G59C U90G
A60G U77G C87U
A60C G81A C87A G133C G143A U148A
A60C C85G C149G
G59C U77A C96G C105U G140A
A60U C96A C99U U111C G126A G128U
G59U G88C U151G
A60G G84A C96G A97U
A60G G71U G86A A91U U101G C123A U146G
G59C G84U G100A U135C A137C
G62A A64G G80U C87G
U61A C76A C85G G140A C149G
A60C A66C C96A A110U U144G
G62A C79U A91G C116U C118U
U61A C132G A137U U144A
U61G A107C
G59U C85G A113U C125G
G62A A64U C129U G136C
A60C G81A G88C
A60G C76A U145A U151G
A60G G70C U77A U135G A147C
A60U C87G G100C G128U G143U
A60U G80C U104C
G62A C76A C79A C96A
A60C C72U G141A A142U
A60C A64U C75A A110C
U61G C87U A110U G126A G141A
G62C A66G
U61A U82G G84C
A60C G67C C85U G141A
U61A C85A C96A A121G
G59C U111G G126U U146C G152C
A60U G86A A150C
U61G C85U C131G C132G C149G
A60U G84A G94C C114U A115G C123A G140A
A60G G100C
U61A A66U C103A
A60U A97G C103A A115U G152A
A60U U61A U77C G88U G140C U151A
A60U G81U C85U G92U C93G C96A C103U G128A
G62A U77A C85A
A60C U82A C99A C132A A142G
U61A G70A G71A C103A G124U A142U
A60U C63A C79G C96U A122U C123U
U61G G84A U139C U145C
G62C A106C G143U
G59U C72U C87U U134A A137U

Polymerase ribozyme fitness (log ratio), -4.07:
A60U C87A C95A C108A A110G

Polymerase ribozyme fitness (log ratio), 0.493:
G62A G81U C95A G126U

Polymerase ribozyme fitness (log ratio), -2.07:
U61G C95U

Polymerase ribozyme fitness (log ratio), -3.47:
G59C G133U

Polymerase ribozyme fitness (log ratio), -2.29:
U61G C85A

Polymerase ribozyme fitness (log ratio), -3.52:
U61G C85A G133C

Polymerase ribozyme fitness (log ratio), -3.8:
A60C G94C A97G A98G U134C

Polymerase ribozyme fitness (log ratio), 1.1:
G59U C85U A150U

Polymerase ribozyme fitness (log ratio), -2:
U61A C118A

Polymerase ribozyme fitness (log ratio), -0.822:
G62A C75U

Polymerase ribozyme fitness (log ratio), -4.13:
A60G G67U G86A

Polymerase ribozyme fitness (log ratio), -1.64:
A60C A97U

Polymerase ribozyme fitness (log ratio), -1.36:
A60U C87U
U61A C96A

Polymerase ribozyme fitness (log ratio), -1.01:
A60C C85U

Polymerase ribozyme fitness (log ratio), -3:
U61A A73G G94U

Polymerase ribozyme fitness (log ratio), -0.94:
G62C A120G

Polymerase ribozyme fitness (log ratio), -1.69:
A60C A89C G94A

Polymerase ribozyme fitness (log ratio), -3.98:
A60U G65C

Polymerase ribozyme fitness (log ratio), -3.29:
A60G U104G G136U U144C

Polymerase ribozyme fitness (log ratio), -0.754:
G59C G83A

Polymerase ribozyme fitness (log ratio), -0.809:
G59C G83A C103U A122G

Polymerase ribozyme fitness (log ratio), -3.85:
U61A G84U C114U

Polymerase ribozyme fitness (log ratio), -3.32:
U61A C96G U109A

Polymerase ribozyme fitness (log ratio), -2.82:
A60U G92U G141C

Polymerase ribozyme fitness (log ratio), -1.02:
G62A G86A A122C

Polymerase ribozyme fitness (log ratio), -2.22:
A60C G84U

Polymerase ribozyme fitness (log ratio), 0.783:
G59C G126C

Polymerase ribozyme fitness (log ratio), -3.34:
A60U C96G

Polymerase ribozyme fitness (log ratio), -3.93:
A60C U61G G92A A110U

Polymerase ribozyme fitness (log ratio), -1.89:
U61G C93U

Polymerase ribozyme fitness (log ratio), 0.139:
A60G C95A U101C

Polymerase ribozyme fitness (log ratio), -2.64:
A60C C93U

Polymerase ribozyme fitness (log ratio), -2.78:
A60U G86A

Polymerase ribozyme fitness (log ratio), -3.86:
G59U A107C A121U

Polymerase ribozyme fitness (log ratio), -1.32:
U61A C96U

Polymerase ribozyme fitness (log ratio), 0.0759:
G59C G83U
